Measurements reported in the supplement of paper PMC10928670.

How the values were obtained:
Test in all cases: Agar dilution by CLSI M07.
cefixime = compound: C=CC1=C(C(=O)O)N2C(=O)[C@@H](NC(=O)/C(=N\OCC(=O)O)c3csc(N)n3)[C@H]2SC1 [cefixime]
penicillin G = compound: CC1(C)S[C@@H]2[C@H](NC(=O)Cc3ccccc3)C(=O)N2[C@H]1C(=O)O [penicillin G]
azithromycin = compound: CC[C@H]1OC(=O)[C@H](C)[C@@H](O[C@H]2C[C@@](C)(OC)[C@@H](O)[C@H](C)O2)[C@H](C)[C@@H](O[C@@H]2O[C@H](C)C[C@H](N(C)C)[C@H]2O)[C@](C)(O)C[C@@H](C)CN(C)[C@H](C)[C@@H](O)[C@]1(C)O [azithromycin]
spectinomycin = compound: CN[C@@H]1[C@H](O)[C@H](NC)[C@H]2O[C@@]3(O)C(=O)C[C@@H](C)O[C@H]3O[C@@H]2[C@H]1O [spectinomycin]
ceftriaxone = compound: CO/N=C(\C(=O)N[C@@H]1C(=O)N2C(C(=O)O)=C(CSc3nc(=O)c(O)nn3C)CS[C@H]12)c1csc(N)n1 [ceftriaxone]

Test System	MIC (cefixime)	MIC (penicillin G)	MIC (azithromycin)	MIC (spectinomycin)	MIC (ceftriaxone)
Neisseria gonorrhoeae isolate 121 (GyrA: Wild type, ParC: Wild type, mtrR: -35A Del, penA: Type XIII NonMosaic, A501V, A517G, ponA: Wild type, porB: G120K, A121D)	0.25 µg/mL	> 64 µg/mL	0.25 µg/mL	32 µg/mL	0.125 µg/mL
Neisseria gonorrhoeae isolate 217 (GyrA: S91F, ParC: Wild type, mtrR: -35A Del, A39T, penA: Type V NonMosaic, A517G, G543S, ponA: L421P, porB: G120K, A121D)	0.03 µg/mL	4 µg/mL	0.5 µg/mL	32 µg/mL	0.06 µg/mL
Neisseria gonorrhoeae isolate 85 (GyrA: Wild type, ParC: Wild type, mtrR: -35A Del, A39T, penA: Type IV NonMosaic, A517G, G543S, ponA: L421P, porB: G120D)	0.03 µg/mL	2 µg/mL	0.25 µg/mL	32 µg/mL	0.03 µg/mL
Neisseria gonorrhoeae isolate 210 (GyrA: Wild type, ParC: Wild type, mtrR: -35A Del, G45D, penA: Type II NonMosaic, A517G, ponA: Wild type, porB: G120D)	0.06 µg/mL	4 µg/mL	0.5 µg/mL	32 µg/mL	0.06 µg/mL
Neisseria gonorrhoeae isolate 131 (GyrA: S91F, D95G, ParC: Wild type, mtrR: -35A Del, penA: Type V Nonmosaic, A517G, G543S, ponA: L421P, porB: G120K, A121D)	0.03 µg/mL	2 µg/mL	0.5 µg/mL	16 µg/mL	0.06 µg/mL
Neisseria gonorrhoeae isolate 168 (GyrA: Wild type, ParC: Wild type, mtrR: G45D, penA: Type XXII NonMosaic, A517G, ponA: Wild type, porB: Wild type)	≤ 0.015 µg/mL	0.5 µg/mL	0.125 µg/mL	16 µg/mL	≤ 0.015 µg/mL
Neisseria gonorrhoeae isolate 19 (GyrA: S91F, ParC: Wild type, mtrR: G45D, penA: Type IV NonMosaic, A517G, G543S, ponA: L421P, porB: Wild type)	0.03 µg/mL	1 µg/mL	0.06 µg/mL	32 µg/mL	0.06 µg/mL
Neisseria gonorrhoeae isolate 211 (GyrA: Wild type, ParC: Wild type, mtrR: -35A Del, A39T, penA: Type V Nonmosaic, A517G, G543S, ponA: L421P, porB: G120K, A121D)	0.06 µg/mL	16 µg/mL	0.5 µg/mL	32 µg/mL	0.06 µg/mL
Neisseria gonorrhoeae isolate 220 (GyrA: Wild type, ParC: Wild type, mtrR: G45D, penA: Type I NonMosaic, ponA: L421P, porB: G120N, A121D)	≤ 0.015 µg/mL	0.5 µg/mL	0.25 µg/mL	32 µg/mL	≤ 0.015 µg/mL
Neisseria gonorrhoeae isolate 156 (GyrA: S91F, D95G, ParC: Wild type, mtrR: -35A Del, penA: Type V Nonmosaic, A517G, G543S, ponA: L421P, porB: G120K, A121D)	0.03 µg/mL	2 µg/mL	0.25 µg/mL	16 µg/mL	0.03 µg/mL
Neisseria gonorrhoeae isolate 73 (GyrA: S91F, ParC: Wild type, mtrR: G45D, penA: Type IV NonMosaic, A517G, G543S, ponA: L421P, porB: G120K, A121D)	≤ 0.015 µg/mL	1 µg/mL	0.25 µg/mL	16 µg/mL	0.03 µg/mL
Neisseria gonorrhoeae isolate 67 (GyrA: Wild type, ParC: Wild type, mtrR: -35A Del, penA: Type IX NonMosaic, A517G, ponA: L421P, porB: G120D)	0.03 µg/mL	4 µg/mL	0.5 µg/mL	16 µg/mL	0.03 µg/mL
Neisseria gonorrhoeae isolate 182 (GyrA: Wild type, ParC: Wild type, mtrR: -35A Del, penA: Type XXII NonMosaic, A517G, ponA: L421P, porB: Wild type)	≤ 0.015 µg/mL	> 64 µg/mL	0.5 µg/mL	16 µg/mL	≤ 0.015 µg/mL
Neisseria gonorrhoeae isolate 208 (GyrA: Wild type, ParC: Wild type, mtrR: Wild type, penA: WT NonMosaic, ponA: Wild type, porB: Wild type)	≤ 0.015 µg/mL	≤ 0.03 µg/mL	0.06 µg/mL	32 µg/mL	≤ 0.015 µg/mL
Neisseria gonorrhoeae isolate 171 (GyrA: Wild type, ParC: Wild type, mtrR: -35A Del, penA: Type XXII NonMosaic, A517G, ponA: L421P, porB: G120D)	≤ 0.015 µg/mL	0.125 µg/mL	≤ 0.03 µg/mL	16 µg/mL	≤ 0.015 µg/mL
Neisseria gonorrhoeae isolate 159 (GyrA: Wild type, ParC: Wild type, mtrR: G45D, penA: Type XXII NonMosaic, A517G, ponA: Wild type, porB: Wild type)	≤ 0.015 µg/mL	0.25 µg/mL	0.06 µg/mL	8 µg/mL	≤ 0.015 µg/mL

Test System	MIC (cefixime)	MIC (penicillin G)	MIC (azithromycin)	MIC (spectinomycin)	MIC (ceftriaxone)
Neisseria gonorrhoeae isolate 9 (GyrA: Wild type, ParC: Wild type, mtrR: G45D, penA: Type I NonMosaic, ponA: Wild type, porB: G120N)	≤ 0.015 µg/mL	0.125 µg/mL	0.06 µg/mL	8 µg/mL	≤ 0.015 µg/mL
Neisseria gonorrhoeae isolate 137 (GyrA: D95N, ParC: Wild type, mtrR: A39T, penA: Type XXII NonMosaic, A517G, ponA: Wild type, porB: Wild type)	≤ 0.015 µg/mL	0.125 µg/mL	0.125 µg/mL	32 µg/mL	≤ 0.015 µg/mL
Neisseria gonorrhoeae isolate 106 (GyrA: S91F, D95N, ParC: S88P, mtrR: -35A Del, G45D, penA: Type X Mosaic, N513Y, ponA: L421P, porB: G120K, A121D)	0.5 µg/mL	2 µg/mL	0.125 µg/mL	32 µg/mL	0.125 µg/mL
Neisseria gonorrhoeae isolate 4 (GyrA: Wild type, ParC: Wild type, mtrR: G45S, penA: Type XXII NonMosaic, A517G, ponA: L421P, porB: porB1a)	≤ 0.015 µg/mL	0.5 µg/mL	0.25 µg/mL	16 µg/mL	≤ 0.015 µg/mL
Neisseria gonorrhoeae isolate 91 (GyrA: Wild type, ParC: Wild type, mtrR: -35A Del, A39T, penA: Type IV NonMosaic, A517G, G543S, ponA: Wild type, porB: Wild type)	0.03 µg/mL	0.5 µg/mL	0.25 µg/mL	32 µg/mL	0.03 µg/mL
Neisseria gonorrhoeae isolate 15 (GyrA: S91F, ParC: Wild type, mtrR: G45D, penA: Type IV NonMosaic, A517G, G543S, ponA: L421P, porB: G120K, A121D)	0.03 µg/mL	2 µg/mL	0.06 µg/mL	16 µg/mL	0.03 µg/mL
Neisseria gonorrhoeae isolate 23 (GyrA: Wild type, ParC: Wild type, mtrR: -35A Del, G45D, penA: Type II NonMosaic, A517G, ponA: Wild type, porB: G120D)	0.03 µg/mL	1 µg/mL	1 µg/mL	32 µg/mL	0.03 µg/mL
Neisseria gonorrhoeae isolate 113 (GyrA: Wild type, ParC: Wild type, mtrR: -35A Del, G45D, penA: Type IX NonMosaic, A517G, ponA: L421P, porB: G120N, A121D)	≤ 0.015 µg/mL	1 µg/mL	0.5 µg/mL	32 µg/mL	0.03 µg/mL
Neisseria gonorrhoeae isolate 102 (GyrA: Wild type, ParC: Wild type, mtrR: -35A Del, A39T, penA: Type IV NonMosaic, A517G, G543S, ponA: L421P, porB: G120K, A121D)	≤ 0.015 µg/mL	0.25 µg/mL	≤ 0.03 µg/mL	8 µg/mL	≤ 0.015 µg/mL
Neisseria gonorrhoeae isolate 94 (GyrA: Wild type, ParC: Wild type, mtrR: -35A Del, penA: Type IX NonMosaic, A517G, ponA: L421P, porB: Wild type)	≤ 0.015 µg/mL	2 µg/mL	1 µg/mL	16 µg/mL	≤ 0.015 µg/mL
Neisseria gonorrhoeae isolate 99 (GyrA: S91F, ParC: Wild type, mtrR: -35A Del, penA: Type II NonMosaic, A517G, ponA: L421P, porB: G120K, A121D)	0.03 µg/mL	64 µg/mL	0.25 µg/mL	16 µg/mL	0.03 µg/mL
Neisseria gonorrhoeae isolate 105 (GyrA: S91F, D95G, ParC: Wild type, mtrR: -35A Del, penA: Type V NonMosaic, A517G, G543S, ponA: L421P, porB: G120K, A121D)	≤ 0.015 µg/mL	0.25 µg/mL	≤ 0.03 µg/mL	16 µg/mL	≤ 0.015 µg/mL
Neisseria gonorrhoeae isolate 184 (GyrA: Wild type, ParC: Wild type, mtrR: -35A Del, penA: Type IV NonMosaic, A517G, G543S, ponA: L421P, porB: G120K, A121D)	≤ 0.015 µg/mL	0.25 µg/mL	≤ 0.03 µg/mL	16 µg/mL	≤ 0.015 µg/mL
Neisseria gonorrhoeae isolate 40 (GyrA: Wild type, ParC: Wild type, mtrR: A39T, penA: Type II NonMosaic, A517G, ponA: Wild type, porB: Wild type)	≤ 0.015 µg/mL	0.25 µg/mL	0.125 µg/mL	32 µg/mL	≤ 0.015 µg/mL
Neisseria gonorrhoeae isolate 61 (GyrA: S91F, D95G, ParC: Wild type, mtrR: -35A Del, penA: Type XII NonMosaic, A517G, ponA: L421P, porB: G120K, A121D)	0.03 µg/mL	2 µg/mL	0.25 µg/mL	16 µg/mL	≤ 0.015 µg/mL
Neisseria gonorrhoeae isolate 235 (GyrA: Wild type, ParC: Wild type, mtrR: -35A Del, G45D, penA: Type IV NonMosaic, A517G, G543S, ponA: L421P, porB: Wild type)	0.03 µg/mL	1 µg/mL	0.06 µg/mL	16 µg/mL	0.03 µg/mL

MIC of N. gonorrhoeae strains collected 1971-2005, agar dilution (CLSI M07); ranges 0.03-64 mg/L (penicillin, azithromycin), 0.015-1 (cefixime, ceftriaxone), 0.5-256 (spectinomycin); higher = less susceptible. No active / inactive call per row; the paper counts cefixime and ceftriaxone above 0.25 and azithromycin above 1 mg/L as non-susceptible. The source says 'penicillin'; penicillin G is assumed. Isolates are numbered anew.
